Structures are written as SMILES. Among all 50,000 compounds or so, about 800 (1.6%) showed an effect of 50% or more. The list shows a part of the results.

The target in this assay is Bcl-2-like protein 10 (Homo sapiens) (UniProt Q9HD36). Kind of assay: TR3 peptide-Bcl-B binding displacers, biochemical primary FP assay, phenotype converters (AID 1240).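 Note: 0% = Bcl-B with tracer peptide and DMSO and 100% = tracer peptide lacking Bcl-B.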 The note with it: GST-Bcl-B / FITC-TR3 peptide fluorescence polarization; stronger effect = higher value; compound at 3.75 mg/L. (In general: Fluorescence polarisation rises when a labelled molecule tumbles more slowly, as on binding a larger partner.)
UniProt Q9HD36, sequence (Q9HD36 whole entry, looked up): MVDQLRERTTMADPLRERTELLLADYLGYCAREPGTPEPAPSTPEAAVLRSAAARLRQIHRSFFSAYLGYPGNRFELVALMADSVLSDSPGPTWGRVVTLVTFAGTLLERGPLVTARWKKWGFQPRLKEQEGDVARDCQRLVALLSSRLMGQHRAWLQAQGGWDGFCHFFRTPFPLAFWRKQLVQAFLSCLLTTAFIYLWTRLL
In the case of `O=C(N/N=C/c1ccccn1)c1[nH]c2ccc([N+](=O)[O-])cc2c1-c1ccccc1`, the displacement is -15.3%.
Consider `CCCC1C(c2ccccc2)NC(c2ccccc2)C(C)C1(C)O` (stereo not drawn), for which the displacement is -6.6%.
The figure for `COc1cc(OC)cc(C(=O)Nc2cccc(-c3nc4cc(C)cc(C)c4o3)c2C)c1` is 58.7%; for `N#CC(C(N)=O)C(SCc1ccccc1)c1ccc(Br)cc1` (stereo not drawn) it is 10.5%; for `O=C(CSc1cccc2cccnc12)Nc1nnc(-c2ccccc2)s1` it is 8.7%.
The figure for `O=C(/C=C/c1ccc(F)cc1)Nc1ccccc1[N+](=O)[O-]` is 12.8%.
The figure for `COc1cc(OC)c(OC)cc1/C=C/c1cc(C(F)(F)F)[nH]c(=O)n1` is 7.5%.
Consider `O=C1NC(=S)S/C1=C\c1cccc(OS(=O)(=O)c2ccc([N+](=O)[O-])cc2)c1`, for which the displacement was -32.2%.
On to `Cc1ccc(NC(=O)c2ccc3c(c2)C(=O)N(CC2CCCO2)C3=O)cc1C` (stereo not drawn), for which the displacement is 8.5%.
With `CCOc1ccc(N(CC(=O)N2CCOCC2)S(C)(=O)=O)cc1` the figure was 11.1%; with `Cc1cc(Br)ccc1S(=O)(=O)NCc1ccccc1`, 3.9%; with `CC(=O)NS(=O)(=O)c1ccc(NS(=O)(=O)Cc2ccccc2)cc1`, -7.9%.
Consider `CCc1ccc(CN2CCN(C(=O)c3cccc(OC)c3)CC2)cc1`, for which the displacement is -17%.
The figure for `CCC(C)NC(=O)c1ccc(CN(c2ccc(C)c(C)c2)S(C)(=O)=O)cc1` (stereo not drawn) is -6%; for `O=C(Nc1ccccc1[N+](=O)[O-])C12CC3CC(CC(C3)C1)C2` it is -11%.
With `COc1cccc(CN2CCN(S(C)(=O)=O)CC2)c1OC` the figure was 11%; with `O=C(/C=C/c1ccc([N+](=O)[O-])cc1)C1C(=O)c2ccccc2C1=O`, -6.3%; with `Cc1cc(=O)[nH]c(Nc2nc(C)c3cccc(C)c3n2)n1`, 1.9%.
With `COc1cccc(C2C(C(=O)Nc3ccccc3)=C(C)N=c3s/c(=C\c4ccc5c(c4)OCO5)c(=O)n32)c1` (stereo not drawn) the figure was 12.1%; with `CC(=O)N1c2ccccc2C(N(C(=O)COc2ccc(Cl)cc2Cl)c2ccccc2)CC1C` (stereo not drawn), -0.9%.
As for `C(=N\n1cnnc1)/c1cc2ccccc2[nH]1`, the displacement turned out to be 11.1%.
With `COc1cc(C(=O)NCCc2ccc(Cl)cc2)cc(OC)c1OC` the figure was -6.6%.
With `COC(=O)c1ccccc1NC(=O)c1cc(-c2ccc(OC)cc2OC)nc2ccccc12` the figure was -3%.
With `CCCCOC(=O)COc1ccc(S(=O)(=O)c2ccc(OCC(=O)OCCCC)cc2)cc1` the figure was 14.4%.
For `Cc1ccc(-c2cc(-c3ccccc3O)nc(N/N=C/c3cccnc3)n2)cc1`, the displacement worked out at 27.3%.
The figure for `CCOc1cccc(C=Nc2cc(CC)ccc2O)c1O` is 2.8%.
The figure for `O=C1CCC(C(=O)c2ccccc2)C(O)=C1C=NCCO` (stereo not drawn) is 7.2%.
Consider `COc1ccc(C2=C/C(=C/c3ccc(-c4cccc([N+](=O)[O-])c4)o3)C(=O)O2)cc1`, for which the displacement came out at 7.4%.

The values are drawn from PubChem BioAssay AID1240 (Sanford-Burnham Center for Chemical Genomics, 2008).
